Out of some 50,000 compounds screened, about 800 (1.6%) showed an effect of 50% or more. This is one part of the list.

This assay concerns the target Bcl-2-like protein 10 (Homo sapiens) (UniProt Q9HD36). The experiment in a line: TR3 peptide-Bcl-B binding displacers, biochemical primary FP assay, phenotype converters (AID 1240).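 Note: 0% = Bcl-B with tracer peptide and DMSO and 100% = tracer peptide lacking Bcl-B.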 As to conditions: GST-Bcl-B / FITC-TR3 peptide fluorescence polarization; stronger effect = higher value; compound at 3.75 mg/L.
Sequence of UniProt Q9HD36 (Q9HD36 whole entry, looked up): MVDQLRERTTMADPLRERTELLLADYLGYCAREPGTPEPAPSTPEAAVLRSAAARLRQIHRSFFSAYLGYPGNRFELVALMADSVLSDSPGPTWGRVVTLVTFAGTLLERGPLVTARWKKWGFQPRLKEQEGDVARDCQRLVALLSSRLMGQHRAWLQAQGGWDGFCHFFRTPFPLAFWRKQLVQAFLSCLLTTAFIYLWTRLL
For the compound `O=C(CSc1nc2ccccc2[nH]1)NC1CCCC1`, the displacement is -7.7%.
In the case of `O=C(Nc1ccc(F)cc1)N1CCc2ccccc2C1`, the displacement came to 0.2%.
Under `CCCCOc1ccc(S(=O)(=O)NCc2ccco2)cc1` stands 8.4%.
Under `CC(C)(C)NCCOc1cc(Cl)ccc1Cl` stands -14.3%.
Under `CC(=O)Nc1ccc(C(C)(C)C)cc1[N+](=O)[O-]` stands -4.8%; under `CN1C(=O)/C(=C\c2cn(Cc3ccc(Cl)cc3Cl)nc2-c2ccccc2)SC1=S`, 6.1%.
As for `CCc1cc2c(C)c(CC)c(=O)oc2cc1OC`, the displacement is 3.4%.
Under `O=C1NC2=C(C(=O)N(Cc3ccccc3)C2)C(c2ccccc2)N1` (centres undefined) stands -11.3%.
Next, `COC(=O)CN1C(CCN2CCOCC2)=Nc2ccc(Br)cc2C1c1ccccc1` (centres undefined): -3.8%; `Cc1ccc2c(c1)C(c1ccccc1[N+](=O)[O-])CC(=O)N2` (centres undefined): -3.4%.
Next, `Brc1ccccc1OCCCOc1cccc2cccnc12`: -4.3%.
As for `COc1ccc(OC)c(N2Cc3ccc(OC)c(OC)c3C2=O)c1`, the displacement was -10.9%.
Next, `CCCC(=O)N1CCN(c2ccc(F)cc2)CC1`: 6.5%; `NC(=O)c1c(NC(=O)c2ccc(Br)cc2)sc2c1CCCCCC2`: 4.7%.
Under `CC(C)C(c1ccc(O)cc1)c1ccc(O)cc1` stands 9.8%.
Next, `CNC(=S)N(CCc1ccccc1)C1CC(=O)N(c2ccc(Br)cc2)C1=O` (centres undefined): -4.7%; `O=C(Nc1ccc(F)cc1F)c1ccc(Cl)cc1`: -6.4%; `Cc1cccc(OCC(=O)N/N=C/c2ccncc2)c1`: 8.9%.
`N#C/C(=C\c1cc2c(cc1[N+](=O)[O-])OCO2)C(=O)Nc1cccc(Br)c1`: the displacement was -2.8%.
Next, `O=C1OC(c2ccc(Br)cc2)=C/C1=C/c1cccs1`: 19.6%.
Next, `Clc1ccccc1C1Nc2cccc3cccc(c23)N1`: 15.6%; `NS(=O)(=O)c1ccc(-c2ccc(/C=C3/SC(=S)N(C4CCCCC4)C3=O)o2)cc1`: 19.1%; `CC1=NCCN1S(=O)(=O)c1ccc(Cl)cc1`: 8.9%.
Under `Cc1ccc(CNC(=O)Cc2ccc(Br)cc2)cc1` stands 12.5%; under `C=CC(=O)Nc1ccc2c(c1Oc1ccc(C(C)(C)C)cc1)C(=O)c1ccccc1C2=O`, 8.9%; under `CC(=O)Nc1ccc(NC(=O)c2cc(-c3ccccc3)nc3ccccc23)cc1`, 4.9%.
As for `Cc1ccc(/C(O)=C2/C(=O)C(=O)N(CCCCCC(=O)O)C2c2ccccc2F)cc1` (centres undefined), the displacement was -3.3%.
Next, `O=C1C(=O)N(c2cccc(Br)c2)C(c2ccccc2)/C1=C(/O)c1ccccc1` (centres undefined): 12%; `Brc1ccc2[nH]cc(-c3nnc4ccc5ccccc5n34)c2c1`: -3%.
Next, `Fc1ccc(-c2cc(-c3ccccc3)nc(-n3cccn3)n2)cc1`: -5.1%; `O=C(CCN1C(=O)/C(=C/c2ccccc2)SC1=S)Nc1ncc(Cc2ccccc2Cl)s1`: 8.5%.
On to `Cc1ccccc1NC(=O)c1c(NC(=S)Nc2ccccc2)sc2c1CCCCC2`, for which the displacement was -17.3%.
`CCOc1ccc(NC(=S)NC(=O)/C=C/c2ccc(OC)c(OC)c2)c([N+](=O)[O-])c1`: the displacement came to 7.4%.
Next, `CC1(C)CC(=O)C=C(NCc2ccncc2)C1`: -4.7%; `Cc1c(Cl)cccc1N1C(=O)c2ccccc2C1=O`: 7.1%.
Next, `Cc1ccc(-c2nc(N/N=C/c3ccccc3)c3ccccc3n2)cc1`: 6.7%; `Cc1ccccc1NC(=O)C(=O)NCCO`: 6.2%.
Next, `CN(C)CCCN1C(=O)CSC1c1ccc(Cl)c(Cl)c1` (centres undefined): 2.9%; `CCOc1cccc2c1N(C(=O)c1ccc(C)cc1)C(C)(C)C(=S)C2=C1SC(C(=O)OC)=C(C(=O)OC)S1`: -1%.
For `CCCOc1ccc(N2C(=O)CC(NCc3ccccc3)C2=O)cc1` (centres undefined), the displacement is -5.8%.
As to `O=C(COc1ccccc1)NNC(=O)c1ccc(F)cc1`, the displacement was -12.1%.
Next, `CS/C(=N\S(=O)(=O)c1ccc(Cl)cc1)c1ccccc1`: 7.3%; `O=C(Nc1ncc(Cc2ccc(F)cc2)s1)C1CCCO1` (centres undefined): 15.4%; `COc1ccccc1NC(=O)C1=C(C)NC(=S)NC1c1ccc(Cl)cc1` (centres undefined): -20.6%.
Under `O=C1C=CC(=O)N1Nc1c(Cl)cc(Cl)cc1Cl` stands 2.6%; under `COC(=O)N1CCN(c2ccc([N+](=O)[O-])cc2)CC1`, -2.3%.
Next, `Cc1ccccc1C1=N/C(=C\c2ccc(Br)o2)C(=O)O1`: 13.5%.
In the case of `COC(=O)C1=C(C)N(C)C(=O)/C1=C\c1ccc(C(=O)OC)cc1`, the displacement came to 16.4%.
`CC1=[N+]([O-])C(C)(C)C(c2cccs2)=[N+]1[O-]`: the displacement amounted to 13.4%.
As for `Cc1ccc(N2CC(C(=O)Nc3cc(C)ccc3C)CC2=O)cc1` (centres undefined), the displacement stood at 11.9%.
With `Cc1ccc(C(=O)CCNc2ccc3ccccc3c2)o1`, the displacement is 23.6%.
Take `COc1ccc2nnc(-c3ccccc3)n2n1`: the displacement was 0.8%.
`O=C(NCc1ccco1)c1cc2c(ccc3ccccc32)oc1=O`: the displacement worked out at 8.9%.
In the case of `CCc1ccc(CN2CCN(C(=O)c3cc(OC)cc(OC)c3)CC2)cc1`, the displacement was -8.9%.
Next, `O=C(c1nn2c(c1Cl)NC(c1ccco1)CC2C(F)(F)F)N1CCN(Cc2ccccc2)CC1` (centres undefined): -0.5%.
Take `OC(c1ccccc1)c1ccc2c(c1)OCCCO2` (centres undefined): the displacement was 6.7%.
Next, `Cc1cc(F)ccc1NCc1ccccn1`: 6%; `O=C(O)c1ccc(NC2=C(Cl)C(=O)N(c3cccc(Cl)c3)C2=O)cc1`: 13.2%.
In the case of `COc1ccc(N(CC(=O)Nc2cccc(OC)c2)S(=O)(=O)c2ccc(C)cc2)cc1`, the displacement came out at 5.1%.
Next, `C=CCc1cccc2cc(C(=O)NC3CCCCC3)c(=O)oc12`: -1%; `COC(=O)c1nc2nc(C)cc(C)n2n1`: -10.7%.
With `CCOc1cccc(-c2cc(C(=O)N3CCc4ccccc43)c3ccccc3n2)c1`, the displacement came out at 110%.
Next, `COc1ccc(N2C(=O)CSC2c2ccc(C)cc2)cc1` (centres undefined): 2.2%; `O=C(/C=C/c1c[nH]c2ccccc12)c1ccc([N+](=O)[O-])cc1`: 5.6%.
In the case of `CCN(CC)c1ccc(C=Nc2ccc(S(N)(=O)=O)cc2)cc1`, the displacement was determined as 6.6%.
With `CC(=O)OC(OC(C)=O)C12C=CC(O1)C1C(=O)N(c3cc(C(F)(F)F)ccc3Cl)C(=O)C12` (centres undefined), the displacement was -13.6%.
Regarding `O=C1NC(=O)N(c2ccc(Cl)cc2)C(=O)/C1=C/c1cccc(Br)c1`, the displacement amounted to 5.6%.
Next, `C=CCNC(=S)NNC(=O)COc1cccc(C)c1`: -15.4%; `COc1ccccc1/C=C1\SC(=O)N(c2ccc(Cl)cc2)C1=O`: -2.6%; `CN(C)/C=C1\C(=O)N/C(=C/c2ccc(Br)cc2)C1=O`: 7.9%.
On to `COCCCNC(=O)COc1ccc(C)cc1Br`, for which the displacement was -11.2%.
Next, `CN1CCN(C(=O)c2ccccc2NC(=O)c2ccccc2)CC1`: 3.4%; `Cc1ccc(O)c(C(=O)CC(=O)c2ccc(Br)cc2)c1`: -26.7%.
Next, `COc1cccc(NC(=S)NC(NC(=O)c2ccc(Br)cc2)C(Cl)(Cl)Cl)c1` (centres undefined): 1.1%.

Source of the values: PubChem BioAssay AID1240 (Sanford-Burnham Center for Chemical Genomics, 2008).
